Reference: PMC4336329 (PLoS ONE, 2015)
The whole screen tested about 310,000 compounds, of which about 14,000 (4.5%) showed an effect of 50% or more. The effect is printed as a negative number. This is one part of the list.

target: human ether-à-go-go-related gene (hERG) potassium channel (human, UniProt Q12809); assay: primary screen, population patch clamp on CHO cells stably expressing hERG
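Note: peak tail current of the secondary pulse compared with the same well before compound.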

Sequence of human ether-à-go-go-related gene (hERG) potassium channel (Q12809 whole entry, looked up): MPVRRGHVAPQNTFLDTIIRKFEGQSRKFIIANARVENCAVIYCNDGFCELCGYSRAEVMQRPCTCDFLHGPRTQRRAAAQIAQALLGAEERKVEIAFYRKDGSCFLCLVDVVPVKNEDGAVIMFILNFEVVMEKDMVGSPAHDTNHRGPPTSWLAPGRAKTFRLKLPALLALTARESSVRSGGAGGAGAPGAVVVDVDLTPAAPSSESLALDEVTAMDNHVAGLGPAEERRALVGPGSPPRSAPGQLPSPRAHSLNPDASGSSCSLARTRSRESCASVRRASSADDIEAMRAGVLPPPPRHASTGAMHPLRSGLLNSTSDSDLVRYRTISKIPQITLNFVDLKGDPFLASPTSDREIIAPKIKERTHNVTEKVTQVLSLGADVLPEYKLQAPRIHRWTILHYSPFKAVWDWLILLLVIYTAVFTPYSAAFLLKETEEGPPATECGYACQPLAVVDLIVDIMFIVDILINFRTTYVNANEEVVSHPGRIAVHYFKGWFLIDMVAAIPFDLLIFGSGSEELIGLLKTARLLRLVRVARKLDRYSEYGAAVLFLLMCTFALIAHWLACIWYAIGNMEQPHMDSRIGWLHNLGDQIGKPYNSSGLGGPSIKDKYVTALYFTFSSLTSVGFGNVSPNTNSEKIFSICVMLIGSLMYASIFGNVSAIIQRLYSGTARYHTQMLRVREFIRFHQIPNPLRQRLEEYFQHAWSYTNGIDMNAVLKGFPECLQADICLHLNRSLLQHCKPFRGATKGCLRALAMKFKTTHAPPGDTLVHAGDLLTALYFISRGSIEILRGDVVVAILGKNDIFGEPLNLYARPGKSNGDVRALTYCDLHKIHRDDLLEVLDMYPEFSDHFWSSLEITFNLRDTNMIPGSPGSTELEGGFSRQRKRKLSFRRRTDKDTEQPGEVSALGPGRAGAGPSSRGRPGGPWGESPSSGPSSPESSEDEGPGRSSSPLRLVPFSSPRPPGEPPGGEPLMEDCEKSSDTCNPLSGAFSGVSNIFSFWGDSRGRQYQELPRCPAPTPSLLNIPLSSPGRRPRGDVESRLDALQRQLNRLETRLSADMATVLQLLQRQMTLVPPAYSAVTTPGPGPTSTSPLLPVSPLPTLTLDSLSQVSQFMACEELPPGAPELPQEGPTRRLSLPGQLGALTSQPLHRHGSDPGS

Row | SMILES | hERG current change (%, negative = inhibition) at 10uM [%]
1 | COc1ccc(S(=O)(=O)N2CCCCC2)cc1NC(=O)CCCNC(=O)c1ccc(Cl)cc1 | 6.98
2 | Cc1nn(Cc2ccc(C(=O)Nc3ccccc3F)cc2)c(C)c1Cl | 11.3
3 | Cc1cc(NS(=O)(=O)c2ccc(NC(=O)c3c(F)c(F)c(F)c(F)c3F)cc2)nc(C)n1 | 4.63
4 | COc1ccc(-c2c(=O)n(OCc3nc4ccccc4[nH]3)c3ccccc3[n+]2[O-])cc1 | -4.26
5 | Cc1cc(C=C2C(=O)N(C)C(=S)N(C)C2=O)c(C)n1C1CCCC1 | 14.1
6 | C=CCn1c(SCC(=O)NC2CC2)nc2ccccc2c1=O | -3.94
7 | O=C1CC(c2ccccc2)n2nc(NC(=O)c3cccs3)nc2N1 (stereo not shown) | -0.0115
8 | Cc1[nH]c2ccccc2c1C(=O)COC(=O)c1nccnc1N | -9.83
9 | COC(=O)c1ccc(Cl)c(NC(=O)CN2CCC(C)CC2)c1 | -21.5
10 | CCOc1ccc(NC(=O)c2ccc3c(c2)CCN3S(C)(=O)=O)cc1 | 6.24
11 | Cc1ccc(NC(=O)COC(=O)c2cc(-c3cccs3)nn2-c2ccccc2)cc1[N+](=O)[O-] | -4.24
12 | CC(NC(=O)Cn1cnnn1)C12CC3CC(CC(C3)C1)C2 (stereo not shown) | 7.75
13 | Cc1[nH]nc(N=CC2=C(O)CC(c3ccco3)CC2=O)c1-c1ccc(Cl)cc1 (stereo not shown) | -4.37
14 | O=C(Nc1ccccc1C(F)(F)F)N1CCCC(O)C1 (stereo not shown) | 11.2
15 | CCN(CC)S(=O)(=O)c1cc(NC(=O)C(C)N2CCc3ccccc32)ccc1C (stereo not shown) | 10.8
16 | COc1ccc(-c2nnc(SCC(=O)N/N=C/c3ccccc3C(=O)O)n2-c2ccc(Cl)cc2)cc1 | 4.64
17 | CCOC(=O)c1c(NC(=S)NCCc2ccccc2)sc2c1CC(C(C)C)OC2 (stereo not shown) | 11.3
18 | COc1ccc(-c2ccc3oc(-c4ccc(OC)cc4)c(-c4ccc(OC)cc4)c3c2)cc1 | 18.7
19 | Cc1ccc(Cn2nc(C)c(NC(=O)c3nn(C)cc3Cl)c2C)cc1 | -0.48
20 | COc1cccc(CC2(CO)CCCN(CC3=Cc4cc(OC)ccc4OC3)C2)c1 (stereo not shown) | -21.5
21 | CN(C)CC1CCCCC1OC(=O)c1ccc(Br)cc1.Cl (stereo not shown) | -7.82
22 | COC(=O)c1ccc2c(CCO)c[nH]c2c1 | 8.14

Row | SMILES | hERG current change (%, negative = inhibition) at 10uM [%]
23 | O=c1cc(COc2ccccc2[N+](=O)[O-])nc2sccn12 | 4.69
24 | COC(=O)CNC(=O)COC(=O)Cc1ccc(Cl)cc1 | 18.1
25 | COc1ccc(N(C(=O)c2ccco2)C(C(=O)NC2CCCC2)c2cc(OC)c(OC)c(OC)c2)cc1 (stereo not shown) | 14.1
26 | CC(C)C(NC(=O)c1ccc(C(C)(C)C)cc1)C(=O)O (stereo not shown) | 2.22
27 | Cc1c(C(=O)Nc2ccccc2)oc2c1C(=O)CC(C)(C)C2 | -18
28 | O=C(O)CNS(=O)(=O)c1ccc(C2CCCCC2)cc1 | 10.8
29 | O=C1NN(c2ccc(Cl)c(Cl)c2)C(=O)/C1=C/c1cccc(OC(=O)c2cccs2)c1 | 27.2
30 | CC(C)(O)C#Cc1ccc(C(=O)Nc2ccc3c(c2)OCO3)s1 | 22.7
31 | CCOC(=O)CSc1nnc(N)s1 | 15.6
32 | Cc1nnc(SC(C)C(=O)Nc2ccc(S(=O)(=O)N3CCCCC3)cc2)s1 (stereo not shown) | -18.4
33 | C/C(CC(=O)N1CCN(C=O)CC1)=N\NC(=O)c1cc2ccccc2cc1O | 3.75
34 | Cc1ccc(NC(=O)C(C)Sc2nc3nc(C)cc(C)n3n2)cc1 (stereo not shown) | -41.4
35 | Cc1ccc(NC(=O)/C=C/C(=O)O)c(NC(=O)c2ccccc2)c1 | 6.45
36 | COC(=O)c1ccc(OC(=O)CCN2c3ccccc3Sc3ccccc32)cc1 | 8.91
37 | O=C(CSc1nc2ccccc2c(=O)n1-c1ccccc1)NC(=O)CN1CCCC1=O | 12.2
38 | COCCCN(C(=O)c1cccnc1SC)c1c(N)n(Cc2ccccc2)c(=O)[nH]c1=O | 8.98
39 | COc1cccc(C=O)c1OC(=O)N1CCOCC1 | 20.4
40 | CCN(CC)c1ccc(NC(=O)c2cccc(C)c2OC)c(C)c1 | 2.07
41 | Cc1ccc2[nH]c(=O)c(CN(Cc3ccco3)C(=O)CN3CCCC(C)C3)cc2c1 (stereo not shown) | -57
42 | CCOC(=O)C1CCN(C(=O)CN(c2cc(Cl)ccc2OC)S(=O)(=O)c2ccccc2)CC1 | -67
43 | CCCCC1(c2ccc(F)cc2)NC(=O)N(CC(=O)N2CCN(C(=O)c3ccco3)CC2)C1=O (stereo not shown) | -52.6
44 | Cn1c(=O)c2c(nc(Sc3ncnn3CC(=O)NC(C)(C)C)n2C)n(C)c1=O | 31

Row | SMILES | hERG current change (%, negative = inhibition) at 10uM [%]
45 | COc1ccc(-c2cc3ccccc3n2CC(O)CNC(CO)(CO)CO)cc1 (stereo not shown) | 10.8
46 | O=C(c1ccco1)N1CCN(c2ccc(N3CCCCC3)nn2)CC1 | -44.8
47 | O=C1COc2ccc(C(=O)COC(=O)COc3ccccc3[N+](=O)[O-])cc2N1 | -10.4
48 | NC(=S)c1cn(C2OC(CO)C(O)C2O)c2ncnc(N)c12 (stereo not shown) | 23.2
49 | Nc1c(C(=O)NCCc2ccccc2)nnn1Cc1ccccc1 | -5.66
50 | COc1ccc(Nc2c([N+](=O)[O-])ccc3c2=NC2(CCCCC2)N=3)cc1 | 0.625
51 | O=C(Cn1cnc2ccccc21)Nc1ccc(C(=O)O)cc1.O=C(O)C(=O)O | -71.4
52 | CCN=C1NN=C(c2ccc(C)cc2)CS1 | 18.2
53 | COc1ccccc1Nc1c([N+](=O)[O-])cncc1[N+](=O)[O-] | 12.5
54 | CCn1c(CNC(=O)COc2ccc(C(C)C)cc2)nnc1SCC(=O)Nc1ccc(F)cc1 | -49.4
55 | O=C(NCCCN1CCN(Cc2ccccc2)CC1)C1CCN(c2nnc(-n3cccc3)s2)CC1 | -48.5
56 | CC/C(CC(c1ccccc1)c1c(O)c2ccccc2oc1=O)=N\NC(N)=S (stereo not shown) | 2.2
57 | Nc1ccc2cn[nH]c2c1 | 18.7
58 | CS(=O)(=O)c1ccc(Cl)c(NC(=O)Cc2ccccc2F)c1 | 24.4
59 | O=[N+]([O-])c1ccc(NC(=S)N2CCN(S(=O)(=O)c3ccccc3)CC2)cc1 | -24.6
60 | Cc1ccc(C)c(N(CC(=O)NC2CCCC2)C(=O)c2cc3cc4cccc(C)c4nc3s2)c1 | 8.34
61 | CCNC(=O)COC(=O)c1sccc1C | 5.58
62 | O=C(CSCc1ccc([N+](=O)[O-])cc1)Nc1ccc(S(=O)(=O)N2CCCCCC2)cc1 | -20.2
63 | CC(=O)Oc1c(S(=O)(=O)c2ccc(C)cc2)c(C)nn1-c1ccccc1 | -4.21
64 | O=c1c(N=Nc2ccc(O)cc2)c(-c2ccccc2)[nH]n1-c1ccc([N+](=O)[O-])cc1 | 11.1
65 | CCC(=O)NC(=S)Nc1ccc(OC)cc1OC | 9.23
66 | Cc1ccc2cc3c(NC(=O)c4cccnc4)nn(C)c3nc2c1 | 13.8

Row | SMILES | hERG current change (%, negative = inhibition) at 10uM [%]
67 | Cc1ccc(CN2CCN(C(=O)C3CCC3)CC2)cc1 | 16.1
68 | COc1ccc(OC)c(NC(=O)C2CCCN(S(=O)(=O)c3cccc4nonc34)C2)c1 (stereo not shown) | 4.34
69 | COc1ccccc1NC(=O)N1CCN(C(=O)c2ccco2)CC1 | 1.53
70 | COC(=O)C1=C(C)N(c2ccc(F)cc2)/C(=C/c2ccc(O)cc2)C1=O | 26.3
71 | COc1ccccc1Nc1nc(N)nc(CCl)n1 | 3.4
72 | COC(=O)C1CN(C(=O)COc2ccc(Cl)c(C)c2)c2ccccc2O1 (stereo not shown) | -1.55
73 | COc1ccccc1-n1cnc2cc(C(=O)NC3CCCC3)ccc21 | -65.5
74 | O=C1c2ccccc2C(=O)c2c1ncn2-c1ccccc1 | -26.2
75 | Nc1c2c(nc3ccccc13)CCCC2=O.O=C(O)CCC(=O)O | -26.4
76 | O=C(COC(=O)c1cc(S(=O)(=O)N2CCCCC2)ccc1N1CCOCC1)c1ccccc1 | -8.36
77 | O=C(c1ccc(S(=O)(=O)N2CCCC2)cc1)N(c1ccccc1)C1C=CS(=O)(=O)C1 (stereo not shown) | -23
78 | CCCN(Cc1cc2cccc(C)c2[nH]c1=O)C(=O)c1cccc(OC)c1 | -23
79 | O=C(C(=O)N1CCN(c2ccc(F)cc2)CC1)c1cn(CC(=O)N2CCOCC2)c2ccccc12 | -0.953
80 | COc1ccc(NC(=O)c2cccnc2N2CCCC2)cc1 | 0.363
81 | Cc1cc(C)nc(N2CCCC(C(=O)NCc3ccccc3F)C2)n1 (stereo not shown) | 7.81
82 | COC(=O)Nc1ccc(S(=O)(=O)Nc2cccc3ccccc23)cc1 | 7.59
83 | CC(NC(=O)COc1ccc(/C=N/NC(=O)CO)cc1)c1ccccc1 (stereo not shown) | -0.156
84 | COc1ccc(C2C3=C(CC(C)(C)CC3=O)Nc3c2c(=O)[nH]c(=O)n3Cc2ccccc2)cc1OC (stereo not shown) | -3.11
85 | O=C1c2ccccc2C(=O)N1/N=C/c1ccc(O)c(O)c1 | 9.42
